± gives the standard deviation of the averaged measurements. The list shows a part of the results.
Each sequence was assayed on PfAP2-I AP2 domain 3 (GST-tagged) (assay: gcPBM binding intensity (ln(normalized median fluorescence intensity)); higher = stronger DNA binding).
How it was run: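 The binding buffer was 1× PBS containing 1% milk, 0.2 mg/ml BSA, 0.5% salmon testes DNA and 0.03% Triton X-100. In it, GST-tagged P. falciparum DNA-binding domains expressed in E. coli were applied for 1 h to an Agilent 4 × 180k array of primer-extended double-stranded 36-bp intergenic genomic probes plus negative controls. Binding intensity, read with Alexa488 anti-GST antibody and a 488 nm scan, is the highest Masliner-normalised natural-log median intensity across replicate spots of either probe orientation.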
For “ATATTATGAAGGGATATTTTCAAAAATATTAGGAGA [CACACA_negctrl_site942]”, the “gcPBM binding intensity (ln)” value was 7.89 ± 0.64. “TAAATGAAAATAAATTAACACACAATTTTAATATTG [CACACA_site8360]” was tested, and the “gcPBM binding intensity (ln)” value was 7.37 ± 0.55. In the case of “GTCAATATTTAGATATGTACTAAGGAGTGCTATATA [XGTACX_site222]”, the “gcPBM binding intensity (ln)” value is reported as 10.2 ± 0.55. In the case of “ATTTATTTTAATTTTTTTTTTTCTCTTTTGGATCTA [CACACA_negctrl_site1408]”, the “gcPBM binding intensity (ln)” value is reported as 7.21 ± 0.86. “AATGAATTTAATTCTACTATTTTTTTTTTAAATATT [XGTACX_negctrl_site296]” was tested, and the “gcPBM binding intensity (ln)” value was 7.24 ± 0.79. “TGTAATATGAAATGTGTACACACGCACCCACAAAAA [CACACA_site8948]” was tested, and the “gcPBM binding intensity (ln)” value was 9.31 ± 0.23. For “TTCTCAAAGTTTACGTGTACATAAATTATATAAATG [XGTACX_site2622]”, the “gcPBM binding intensity (ln)” value was 8.04 ± 0.15. “ATTAGGCATATTTTCTGTACACAATAATAAAAAAAA [XGTACX_site3957]” was tested, and the “gcPBM binding intensity (ln)” value was 8.09 ± 0.24. “ATATATATATATGCATGTACATATATTTGTTATATC [XGTACX_site3197]” was tested, and the “gcPBM binding intensity (ln)” value was 9.22 ± 0.27. For “TTCCCTTATTTTGTATGTACACAATTTATCATGTTG [XGTACX_site2896]”, the “gcPBM binding intensity (ln)” value was 8.29 ± 0.59. In the case of AAACAAAGGGAACATGTGCACTTACAAAAAAAAAGA, the “gcPBM binding intensity (ln)” value is reported as 9.78 ± 0.28. “AATAGATATATAAATACACACAAACATACCTATATA [CACACA_site7823]” was tested, and the “gcPBM binding intensity (ln)” value was 7.67 ± 0.45. In the case of “TCACACCTTTTTGGTTGTACTTAAATTTCTTTTTTT [XGTACX_site6438]”, the “gcPBM binding intensity (ln)” value is reported as 7.58 ± 0.44. In the case of “AATTTCTTCCATTGTAGTACTCAATTTTTTTTTGTT [XGTACX_site5847]”, the “gcPBM binding intensity (ln)” value is reported as 8.12 ± 0.6. With “CACATATACAAAAAGAAATGTTTAGTTGAAAATTAA [CACACA_negctrl_site1407]” the “gcPBM binding intensity (ln)” value was 7.31 ± 0.51. With “GTGTAATATTATATATATATATATAATATATATACA [CACACA_negctrl_site263]” the “gcPBM binding intensity (ln)” value was 7.97 ± 0.28. “AAAAAAAAAAAAATGGTGCAACTTTGTTAAAGGAAA [GTGCAC_site9950]” was tested, and the “gcPBM binding intensity (ln)” value was 9.56 ± 0.12. With “ATTAAATACATTAACACACACACAAATAAATACATA [CACACA_site5583]” the “gcPBM binding intensity (ln)” value was 7.91 ± 0.3. In the case of “TTTTATTATTTGTCTTGTACTCATTGTAAGAGTATG [XGTACX_site1538]”, the “gcPBM binding intensity (ln)” value is reported as 7.81 ± 0.41. “GACAGATTATAGCATAGTACTCATACATACATACAT [XGTACX_site1252]” was tested, and the “gcPBM binding intensity (ln)” value was 8.86 ± 0.37. For “TACATACATACATACACACACACATCTATATTTATA [CACACA_site6171]”, the “gcPBM binding intensity (ln)” value was 8.9 ± 0.55. In the case of “TTTCAAAAATTATTTTGTACATATAATTAATATACG [XGTACX_site512]”, the “gcPBM binding intensity (ln)” value is reported as 7.54 ± 0.29. In the case of “TAAACTATATTTACATGTACATATAATATTAAATAA [XGTACX_site3528]”, the “gcPBM binding intensity (ln)” value is reported as 7.7 ± 0.3. For “CCTATAAAACCATATACACACATATAAATAAAAAAA [CACACA_site7809]”, the “gcPBM binding intensity (ln)” value was 7.75 ± 0.4. For “TGATAATAAGCATACACACACACACCCAAAAAAAAA [CACACA_site721]”, the “gcPBM binding intensity (ln)” value was 8.26 ± 0.32. With “TATTACATTATTCAAAAAAATTTATATGGTTATAGG [CACACA_negctrl_site1657]” the “gcPBM binding intensity (ln)” value was 7.5 ± 0.39. For “ATATATATATATATATATATATATATGATTATTACT [GTGCAC_negctrl_site109]”, the “gcPBM binding intensity (ln)” value was 9.21 ± 0.6. “AAATAAAAAAAAAAAAAAAATAACTTAAATGGGATA [TGCATGCA_negctrl_site595]” was tested, and the “gcPBM binding intensity (ln)” value was 7.2 ± 0.45. For “AACTAAATGTTATTCGCACACGGAATTTATTTAATG [CACACA_site3664]”, the “gcPBM binding intensity (ln)” value was 7.96 ± 0.59. In the case of “TTTTTTTTTTCTTTTTTTCTCATGAAATTCTAAATG [CACACA_negctrl_site918]”, the “gcPBM binding intensity (ln)” value is reported as 7.88 ± 0.57. For “ATTAATATGAATAAAACACACATATATAACTTGTAA [CACACA_site6989]”, the “gcPBM binding intensity (ln)” value was 7.64 ± 0.46. For “AATTATACTCACGTTACACACACACTATAAATATAT [CACACA_site7863]”, the “gcPBM binding intensity (ln)” value was 8.43 ± 0.68. In the case of “AAAAATTTGGCATACACACACACACGCACACGCACA [CACACA_site6422]”, the “gcPBM binding intensity (ln)” value is reported as 8.54 ± 0.25. In the case of “TATATATGGGTACTAATTCCTTTAATTTCTTTAATT [CACACA_negctrl_site949]”, the “gcPBM binding intensity (ln)” value is reported as 7.58 ± 0.46. With “TAGTAAAAGATATACACACACCAAAAAATATAATTA [CACACA_site7142]” the “gcPBM binding intensity (ln)” value was 7.79 ± 0.57. For “AATTATATTCAAAATGGTACACACAATATTTAATTG [XGTACX_site5521]”, the “gcPBM binding intensity (ln)” value was 7.81 ± 0.34. “AAAAAAAAATTAGGGGTGCCATTTGCTGCTGTGCTT [GTGCAC_site9913]” was tested, and the “gcPBM binding intensity (ln)” value was 9.04 ± 0.15. With “TTTTGTATTTCTCACACACACATAAGTAAACAATAA [CACACA_site5105]” the “gcPBM binding intensity (ln)” value was 8.08 ± 0.49. In the case of “ATAATTCATGTTTAGTGTACAAAAAATTAAAGCAAC [XGTACX_site8891]”, the “gcPBM binding intensity (ln)” value is reported as 8.63 ± 0.38. For “TATATATATATAATATGTACATATATATATTCTTAA [XGTACX_site6154]”, the “gcPBM binding intensity (ln)” value was 9.01 ± 0.11. “AAATAATTTATATGTAGTACATGTTGTAGATAATTT [XGTACX_site1031]” was tested, and the “gcPBM binding intensity (ln)” value was 8.16 ± 0.28. In the case of “ATGCATCATTTATTTGCACACCTATTATATACTTTT [CACACA_site2097]”, the “gcPBM binding intensity (ln)” value is reported as 10.1 ± 0.25. With “TGATTATATAAAAAAAAGAAAAAAAAAAAAAAAAAA [CACACA_negctrl_site819]” the “gcPBM binding intensity (ln)” value was 8.22 ± 1.2. With “TTATGATAACTTTGCACACACTTAGGAAAAGTTATG [CACACA_site6836]” the “gcPBM binding intensity (ln)” value was 8.79 ± 0.19.
